# In all, about 410,000 compounds went through this assay and about 530 (0.13%) were called active. Inconclusive results, whose numbers are uncertain, are shown with a selection of clear calls. Calls follow the shape of the dose curve; as a rule, active = well fitted inhibition curve with a large enough effect; inconclusive = small, poorly fitted or top-dose-only effect, or another doubt; inactive = no such curve, though single readings can be large or run the other way. Potencies of inconclusive entries are doubtful fits and often do not repeat.
# Assay: qHTS of GLP-1 Receptor Inverse Agonists: Cytotox Screen
# Conditions: HEK293 cAMP-luciferase reporter cells, luminescence, 24 h; series mostly up to 38.3 µM
# Outline: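 Step one: seed cells (200 cells/uL, DMEM with 10% Nu serum, 1% pen-strep). Step two: 12-hour incubation at 37 deg C. Step three: pin 23 nL compound, incubate 24 hr. Step four: add luciferase reagent, read luminescence 12 min later.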
# Potency is read from the fitted curve at half-maximal effect.
row,Structure (SMILES),Potency
1,CCOC(=O)C(=NCCCN(C)C)NNc1ccc(Br)cc1,"inconclusive: 28.2 µM [inhibitor, single point]"
2,Cc1cc(CNC(=O)C2CCC(=O)N(Cc3cccc(C(F)(F)F)c3)C2)no1 (stereo not drawn),inactive
3,COc1ccc(NC(=S)NC23CC4CC(CC(C4)C2)C3)cc1OC,"inconclusive: 20 µM [inhibitor, single point]"
4,NC(N)=NN=C(c1ccc(F)cc1)c1ccc(C(F)(F)F)cc1,"inconclusive: 1.78 µM [inhibitor, partial curve, poor fit]"
5,Cc1ccc(NC(=O)c2cc(C)n(-c3cccc(C)c3)c2C)cc1,"inconclusive: 28.2 µM [inhibitor, single point]"
6,COc1cccc(CNc2nc(NCC3CC3)nc3ccsc23)c1,"inconclusive: 11.2 µM [inhibitor, single point]"
7,Cc1ccccc1OCCNC(=S)Nc1ccccc1,"inconclusive: 15.8 µM [inhibitor, single point]"
8,c1ccc(OCCCCN2CCCCC2)cc1,inactive
9,COc1cc(/C=C/c2ccc3cccc(O)c3n2)cc(Cl)c1OC,"inconclusive: 1 µM [inhibitor, partial curve, poor fit]"
10,Cc1cc(C)n2nc(N)c(N=Nc3cccc(Cl)c3)c2n1,"inconclusive: 0.501 µM [inhibitor, full curve, poor fit]"
11,c1ccc(CN2CCN(C3=Nc4cccc5cccc3c45)CC2)cc1,"inconclusive: 28.2 µM [inhibitor, single point]"
12,CCN(Cc1ccccc1)S(=O)(=O)c1ccc(C(=O)N(CCCN(C)C)c2nc3cc(C)cc(C)c3s2)cc1,"inconclusive: 22.4 µM [inhibitor, single point]"
13,C/C(=C\C(=S)Nc1ccccc1)Nc1ccccc1,"inconclusive: 10 µM [inhibitor, partial curve, poor fit]"
14,CN(C)CCN1C(=O)c2cccc3cc([N+](=O)[O-])cc(c23)C1=O,"inconclusive: 0.501 µM [inhibitor, full curve, poor fit]"
15,COc1ccccc1N1CCN(c2ccc(-c3ccccc3)nn2)CC1,"inconclusive: 1.12 µM [inhibitor, full curve, poor fit]"
16,COc1ccc(C2=NCC(CSc3nnnn3C)S2)cc1 (stereo not drawn),"inconclusive: 28.2 µM [inhibitor, single point]"
17,Cc1ccc(Cn2c(=N)n(CC(O)c3ccco3)c3ccccc32)cc1 (stereo not drawn),"inconclusive: 7.94 µM [inhibitor, partial curve, poor fit]"
18,O=C(NC(=S)NC12CC3CC(CC(C3)C1)C2)c1ccc(F)cc1,"inconclusive: 12.6 µM [inhibitor, single point]"
19,COc1cc(Cl)c(NS(=O)(=O)c2ccc(-c3cnc(C4CC4)o3)cc2)c(OC)c1,"inconclusive: 1 µM [inhibitor, full curve, poor fit]"
20,COc1ccc(CNC(=O)CSc2nc(-c3ccc(OC)c(OC)c3)cc(C(F)(F)F)n2)cc1,inactive
21,COc1cc(CNC(C)c2ccccc2)cc(Br)c1OCc1ccc(F)cc1 (stereo not drawn),"inconclusive: 28.2 µM [inhibitor, single point]"
22,C=CCOc1ccccc1CN1CCC(C(=O)Nc2cccc(-c3ccn[nH]3)c2)CC1,"inconclusive: 12.6 µM [inhibitor, single point]"
23,O=C(N/N=C/c1cc2c3c(c1O)CCCN3CCC2)c1ccccc1O,inactive

row,Structure (SMILES),Potency
1,CC(C)CCn1c(=O)c2sccc2n2c(CCCC(=O)NCCc3ccccc3)nnc12,inactive
2,CN(C)c1nc(NCc2ccccc2)nc(N/N=C/c2ccc3c(c2)OCO3)n1,"inconclusive: 22.4 µM [inhibitor, partial curve, poor fit]"
3,O=C(c1ccco1)N1CCN(C(=O)c2ccco2)C1=S,"inconclusive: 11.2 µM [inhibitor, partial curve, poor fit]"
4,Cc1cc[n+](C(C)C(=O)c2ccc(-c3ccccc3)cc2)cc1 (stereo not drawn),"inconclusive: 10 µM [inhibitor, single point]"
5,CN1C(=O)/C(=C/c2ccccc2OCc2ccccc2F)NC1=S,inactive
6,COc1ccc(OC)c(/C=C/C(=O)N(C)CC(=O)Nc2ccc(C)cc2)c1,inactive
7,COc1ccccc1N1C(=O)N(C(C)=O)C2C1Nc1ccccc1N2C (stereo not drawn),"inconclusive: 12.6 µM [inhibitor, single point]"
8,O=C(O)c1cc(NCc2ccc(F)cc2)ccc1N1CCOCC1,inactive
9,COc1cc(S(=O)(=O)Nc2ccccc2N2CCCCC2)ccc1NC(C)=O,"inconclusive: 31.6 µM [inhibitor, partial curve, poor fit]"
10,CCn1c(O)c(N=NC(=O)CNC(=O)/C=C/c2ccco2)c2ccccc21,"inconclusive: 28.2 µM [inhibitor, single point]"
11,COc1ccc(N2CCN(C(=O)COC(=O)CC(NC(N)=O)c3ccc(Cl)cc3)CC2)cc1 (stereo not drawn),inactive
12,CCCCn1cnc2sc(-c3ccccc3)cc2c1=O,inactive
13,COc1cc(C(=O)NC(=S)Nc2ccccc2[N+](=O)[O-])cc(OC)c1OC,"inconclusive: 28.2 µM [inhibitor, single point]"
14,CCCCn1c(-c2csc(CC)c2)n[nH]c1=S,"inconclusive: 28.2 µM [inhibitor, single point]"
15,CCN(Cc1nc(-c2ccc(OC)cc2)oc1C)S(=O)(=O)c1ccc(C)cc1,inactive
16,CC(C)(C)c1ccc(C(=O)Nc2nnc(Cc3c[nH]c4ccccc34)s2)cc1,"inconclusive: 12.6 µM [inhibitor, single point]"
17,COc1cccc(O)c1CN1CCC(C(=O)Nc2ccc(-c3cccc(C)c3)cc2)CC1,"inconclusive: 28.2 µM [inhibitor, single point]"
18,COc1cccc(CNc2nc3ccccc3n2CCN2CCCCC2)c1,"inconclusive: 8.91 µM [inhibitor, partial curve]"
19,Cc1oncc1C(=O)Nc1ccc2ccccc2c1,inactive
20,NC(=S)N/N=C/c1ccc2ccccc2c1,active: 3.16 µM
21,Oc1ccc(/C=N/NC(=S)N/N=C/c2ccc(O)cc2)cc1,"inconclusive: 25.1 µM [inhibitor, single point]"
22,COc1ccc(C2c3sc(=O)[nH]c3SC3C4CCC(C4)C23)cc1OC (stereo not drawn),"inconclusive: 28.2 µM [inhibitor, single point]"
23,CC(C)(C)Cc1c(-c2ccc(Cl)cc2)nc2ccc(Br)cn12,"inconclusive: 28.2 µM [inhibitor, single point]"

row,Structure (SMILES),Potency
1,O=C(c1ccccc1)C(CN1CCCCC1)c1ccccc1 (stereo not drawn),"inconclusive: 4.47 µM [inhibitor, partial curve]"
2,O=C(Nc1cc(-c2nc3ccccc3s2)ccc1Cl)c1cc2ccccc2o1,inactive
3,CCCCNc1c(-c2cccc(-c3ccc(OC)cc3)c2)nc2cc(C)ccn12,inactive
4,Cc1ccccc1NC(=O)c1nc(S(C)(=O)=O)ncc1Cl,"inconclusive: 11.2 µM [inhibitor, single point]"
5,NC(=S)N/N=C/c1ccc(-c2cccc([N+](=O)[O-])c2)o1,"inconclusive: 2.24 µM [inhibitor, full curve, poor fit]"
6,CCCCNC(=S)N=Nc1c(O)[nH]c2ccccc12,"inconclusive: 5.01 µM [inhibitor, full curve, poor fit]"
7,Fc1ccc(NC(=S)Nc2ccc(Br)cc2)cc1,"inconclusive: 12.6 µM [inhibitor, single point]"
8,COc1ccc(Cl)cc1NS(=O)(=O)c1ccc2[nH]c3c(c2c1)CCCC3,"inconclusive: 10 µM [inhibitor, partial curve, poor fit]"
9,CC1C(C)N(C(=O)CCl)c2ccccc2N1C(=O)CCl (stereo not drawn),"inconclusive: 28.2 µM [inhibitor, single point]"
10,CCN(CC)C(=O)c1nc[nH]c1C(=O)N1CCN(C(=O)OC(C)(C)C)CC1,"inconclusive: 28.2 µM [inhibitor, single point]"
11,Cc1cc(Br)ccc1NC(=O)C1CCN(C(=O)c2ccco2)CC1,"inconclusive: 28.2 µM [inhibitor, single point]"
12,CC(=O)Nc1ccc(C2=NNC(=Nc3cccc(S(=O)(=O)N(C)C)c3)SC2)cc1,"inconclusive: 11.2 µM [inhibitor, single point]"
13,CC(C)C[C@H]1CN([C@@H](Cc2ccccc2)CN2CCC[C@@H]2CN2C(=O)C(=O)NC[C@@H]2Cc2ccccc2)C(=O)C(=O)N1CCc1ccccc1,"inconclusive: 31.6 µM [inhibitor, single point]"
14,Cc1ccccc1CS(=O)(=O)c1nnc([C@H](CC(C)C)NC(=O)OC(C)(C)C)o1,"inconclusive: 22.4 µM [inhibitor, single point]"
15,CC(=O)c1c(N2CCOCC2)nc2ccc(Cl)cc2c1-c1ccccc1,"inconclusive: 10 µM [inhibitor, single point]"
16,CCCN(CC(=O)Nc1cc(C)on1)CC(=O)Nc1ccccc1C,inactive
17,Cn1cc([N+](=O)[O-])c(C(=O)Nc2cc(Oc3ccccc3)cc([N+](=O)[O-])c2)n1,"inconclusive: 1.78 µM [inhibitor, full curve]"
18,N=C1SC(CC(=O)Nc2ccc([N+](=O)[O-])cc2)C(=O)N1c1ccccc1 (stereo not drawn),"inconclusive: 0.447 µM [inhibitor, full curve, poor fit]"
19,O=C(Nc1ccccc1C(=O)NCc1ccccc1)c1ccccc1,inactive
20,O=C(CCc1ccccc1)NCCSc1ccccc1,inactive
21,Cc1nc([N+](=O)[O-])c(Br)n1Cc1ccc(Cl)c(Cl)c1,active: 10 µM
22,Cc1ccc(NC(CC(=O)c2ccccc2)c2ccc(F)cc2)cc1 (stereo not drawn),inactive
